49 compounds from PubChem BioAssay AID1508642 (National Center for Advancing Translational Sciences (NCATS), 2021) can be followed below.

Each structure is given as a SMILES string. In all, about 43,000 compounds went through this assay and about 200 (0.47%) were called active. Roughly 12% stayed inconclusive and do not appear here. The call rests on the fitted dose curve; in most records, active means well fitted cell-killing curve with a large enough effect; inconclusive means small, poorly fitted or top-dose-only effect, or effect the other way; inactive means flat fitted curve, though single readings scatter. This is one part of the list.
On the % scale 0 is the no-effect control and ±100 the full control effect.

The test can be described thus: Cell viability qHTS assay in S16 Pmp22-F2sN cells. Further: nearly all actives have a fitted effect of over 65% in size. To be noted: S16 Pmp22-F2sN Schwann cells (luciferase reporters placed in the Pmp22 gene) viability, CellTiter-Glo, 24 h; series mostly up to 57.5 µM; activity change, negative = cytotoxicity: at the top concentration. Summed up:
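Seed 500-1,000 S16 Pmp22-F2sN cells per well in phenol-red-free DMEM with 10% heat-inactivated FBS; pin-add 23 nL compound; incubate 24 h at 37C; add CellTiter-Glo, wait 15 min protected from light; read luminescence.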
For `COc1ccc(N2CCN(C(=O)c3nn(C)c4c3CSc3ccccc3-4)CC2)cc1`, the “activity change, negative = cytotoxicity” value is inactive: 11.5%.

As to `Fc1cccc(CSc2nc(NCCc3ccccc3)c3ccccc3n2)c1`, the “activity change, negative = cytotoxicity” value was inactive: -8.29%. In the case of `COc1ccccc1OCC(=O)Nc1cc(-c2ccc(C)cc2)no1` it was inactive: -0.368%. Take `CC1CCN(S(=O)(=O)c2ccc3nc(N4CCN(c5ccccc5)CC4)ccc3c2)CC1`: the “activity change, negative = cytotoxicity” value is inactive: 13.6%. As for `Oc1c(C(c2ccc(Cl)cc2)N2CCOCC2)sc2nc(-c3ccco3)nn12` (centres undefined), the “activity change, negative = cytotoxicity” value was inactive: 0.392%. Consider `COc1cc(NS(=O)(=O)c2cccs2)cc(OC)c1`, for which the “activity change, negative = cytotoxicity” value is inactive: -0.536%.

Consider `CC(=O)c1cc(-c2ccc(F)cc2)n(CC(=O)NCc2ccc(C)cc2)c1C`, for which the “activity change, negative = cytotoxicity” value was inactive: 1.09%. On to `CCc1ccc(-c2ccc3nnc(SCC(=O)Nc4cccc(C(C)=O)c4)n3n2)cc1`, for which the “activity change, negative = cytotoxicity” value is inactive: -23%. In the case of `COc1cc(Cl)c(C)cc1NC(=O)NC1COc2ccccc2C1` (centres undefined), the “activity change, negative = cytotoxicity” value was inactive: -2.63%. On to `CCCNC(=O)Cn1c(=O)cc(C)c2c(C)nn(-c3cccc(F)c3)c21`, for which the “activity change, negative = cytotoxicity” value is inactive: 11.5%. With `Cc1cccc(Oc2nc3c(c(=O)n(C)c(=O)n3C)n2C)c1C`, the “activity change, negative = cytotoxicity” value is inactive: -1.3%.

Turning to `CCOC(=O)N1CCN(C(=O)c2cnn(-c3cccc(F)c3)c2-n2cccc2)CC1`, the “activity change, negative = cytotoxicity” value was inactive: 1.18%. Take `CCc1ccccc1NC(=O)C(CCSC)NS(=O)(=O)c1ccc2c(c1)oc(=O)n2C` (centres undefined): the “activity change, negative = cytotoxicity” value is inactive: 5.89%. Turning to `N#Cc1c(-c2ccccc2)cc(-c2ccccc2)nc1SCC(=O)Nc1ccc(Cl)cc1`, the “activity change, negative = cytotoxicity” value is inactive: 8.52%. In the case of `Cc1ccccc1-c1nn2c(=O)cc(CN3CCN(C(=O)c4ccccc4Br)CC3)nc2s1` it was inactive: -12.7%; in that of `COc1ccc(NC(=O)c2oc3ccccc3c2NC(=O)c2cc(OC)c(OC)c(OC)c2)cc1`, inactive: 7.03%; in that of `COc1ccc(CCNC(=O)CN2C(=O)COc3ccccc32)cc1OC`, inactive: -3.91%. For the compound `COc1cccc(CNC(=O)c2ccc(CS(=O)c3ccccc3)o2)c1` (centres undefined), the “activity change, negative = cytotoxicity” value was inactive: 9.71%. In the case of `CCC(C)n1c(=N)c(S(=O)(=O)c2ccccc2)cc2c(=O)n3ccccc3nc21` (centres undefined) it was inactive: 2.9%; in that of `Cc1nn(C)c2c1c(-c1ccccc1)cc(=O)n2CC(=O)NC(C)(C)C`, inactive: -19.2%; in that of `CCOC(=O)c1ccccc1NC(=O)CSc1ncc2c(n1)-c1ccccc1N(CC)S2(=O)=O`, inactive: 7.57%. In the case of `CCOc1ccc(S(=O)(=O)N(CC(=O)NCCSCc2ccccc2)c2ccccc2)cc1` it was inactive: 6.02%; in that of `CCOc1ccccc1NC(=O)N1CCN(Cc2cc(=O)n3nc(-c4ccc(C)cc4)sc3n2)CC1`, inactive: -1.14%.

In the case of `COc1cc2nc(SCc3ccc(F)cc3)n3nc(CCn4c(C)nc5ccccc54)nc3c2cc1OC`, the “activity change, negative = cytotoxicity” value was inactive: -6.47%. Regarding `O=C(c1ccc(CS(=O)c2ccccc2Cl)o1)N1CCN(c2ccccc2F)CC1` (centres undefined), the “activity change, negative = cytotoxicity” value was inactive: -11%. In the case of `Cc1ccc(CN2CCC(CNC(=O)Nc3c(C)cccc3C)C2)cc1` (centres undefined), the “activity change, negative = cytotoxicity” value is inactive: 11%. `COc1ccccc1-c1c(C)nn2c(C(F)(F)F)cc(-c3ccccc3)nc12`: the “activity change, negative = cytotoxicity” value was inactive: 18.5%. Take `CSc1cccc(NC(=O)c2ccc3c(c2)c(C)c(C)n3Cc2ccc(F)cc2)c1`: the “activity change, negative = cytotoxicity” value is inactive: -16.4%. As to `COc1ccc(CCCc2nnc(SCC(=O)Nc3ccc(C)c(C)c3)o2)cc1`, the “activity change, negative = cytotoxicity” value was inactive: 3.26%. In the case of `CCc1ccc(S(=O)(=O)c2cn(C)c3cc(N4CCN(CC)CC4)c(F)cc3c2=O)cc1`, the “activity change, negative = cytotoxicity” value is inactive: 4.4%. As for `Cc1cc(C)c2c(CC(=O)Nc3nnc(CC(C)C)s3)coc2c1`, the “activity change, negative = cytotoxicity” value is inactive: -3.77%.

As for `CC(C)NS(=O)(=O)c1ccc(OCC(=O)N2CCN(c3ccccc3F)CC2)cc1`, the “activity change, negative = cytotoxicity” value was inactive: 8.43%. Take `CC(C)(C)c1ccc(OCC(=O)Nc2c(C(=O)c3ccc(F)cc3)oc3ccccc23)cc1`: the “activity change, negative = cytotoxicity” value was inactive: 16.2%. For `O=C(CCC1N=C2c3ccccc3N=C(SCc3cccc(Cl)c3)N2C1=O)NCc1cccs1` (centres undefined), the “activity change, negative = cytotoxicity” value is inactive: 7.36%.

Consider `COc1cccc(C(=O)N(Cc2cccc(Cl)c2)Cc2ccco2)c1`, for which the “activity change, negative = cytotoxicity” value was inactive: 11.4%. In the case of `COC(=O)c1c(NC(=O)CCCOc2ccccc2)sc2c1CCC(C)C2` (centres undefined) it was inactive: -0.0607%; in that of `Cc1ccc(Cl)cc1NC(=O)C1CCCN(S(=O)(=O)c2c(C)noc2/C=C/N(C)C)C1` (centres undefined), inactive: -16%; in that of `Cc1cc(Nc2cccc(Cl)c2)nc2ccc(NC(=O)c3ccc(F)cc3Cl)cc12`, inactive: -7.02%. In the case of `O=C(Nc1ccccc1C(=O)OCc1cc(=O)n2ccsc2n1)c1cccc(F)c1` it was inactive: -10.3%; in that of `Cc1ccc2nc(/C(C#N)=C/c3ccc(-c4ccc(F)cc4F)o3)[nH]c2c1`, inactive: -2.07%; in that of `Fc1ccc(C2=NC(c3cccc(C(F)(F)F)c3)=Nc3ccccc3N2)cc1`, inactive: -25.1%.

As for `CCC(=O)N1CCc2cc(S(=O)(=O)CCC(=O)N(C)c3ccc(OC)cc3)ccc21`, the “activity change, negative = cytotoxicity” value was inactive: 12.8%.

As for `CCOc1ccc(NC(=O)NCCCN2CCN(c3ccc(OC)cc3)CC2)cc1`, the “activity change, negative = cytotoxicity” value is inactive: -11%.

For the compound `O=C(c1ccc(CSc2nc3ccncc3n2Cc2ccccc2F)cc1)N1CCCCC1`, the “activity change, negative = cytotoxicity” value was inactive: -9.7%. Consider `CC(C)c1ccc(NC(=O)CNC(=O)Cn2ccc3ccccc3c2=O)cc1`, for which the “activity change, negative = cytotoxicity” value was inactive: 3.62%. Consider `O=C(NCc1ccc(F)cc1)c1cccc(N2CCCS2(=O)=O)c1`, for which the “activity change, negative = cytotoxicity” value is inactive: 23.4%. On to `O=C(NCCc1ccccc1)c1cc(-c2ccccc2)nc2n[nH]c(-c3ccccc3)c12`, for which the “activity change, negative = cytotoxicity” value is inactive: -25.9%. Turning to `Cc1ccc(-c2cc(C(=O)NCCc3ccccc3)c3ccccc3n2)cc1C`, the “activity change, negative = cytotoxicity” value is inactive: -29.6%. As to `CN(C)c1ccc(/C=C(\C#N)c2nc3ccccc3c(=O)[nH]2)cc1`, the “activity change, negative = cytotoxicity” value is inactive: 7.14%.
